Out of some 150,000 compounds screened, about 540 (0.36%) showed an effect of 50% or more. Some of the results follow.
test system: Plasmodium falciparum; assay: Primary screen in NF54 nanoGlo assay, in single point, at 2uM, 72h; a lower Z score goes with more inhibition; type: functional, Erythrocyte; conditions: timepoint 72 hour

Compound	% Inhibition [%]	Z score
CCOC(=O)CN(CCC#N)C1CCCC1	4	-0.54
CS(=O)(=O)N1CCC(c2nnc3sc(Cc4ccc(Cl)cc4)nn23)CC1	27	-3.49
COc1ccc(CN2CCN(C(=O)c3ccco3)CC2)cn1	1	-0.1
CN(CCOc1ccc(O)cc1)Cc1nc(-c2ccsc2)no1	2	-0.26
O=C(O)[C@@H]1Cc2nc[nH]c2CN1C(=O)c1csc2c1CCCC2	-11	1.72
CC1(C)C[C@]1(C(=O)N1CCC(CO)(CN2CCCC2)CC1)c1ccccc1	10	-1.38
CCN1CN(C(=O)NCc2ccc(Cn3ccnc3)cc2)CC1=O	-12	1.17
COc1ccc(-c2onc(C)c2C(=O)N[C@H](C)c2cccc(OC)c2)cc1	5	-0.85
Cc1ccc(S(=O)(=O)NCC[C@@H](CCO)c2ccsc2)s1	4	-0.55
CC1(C)CC(=O)c2cnc3c(C(=O)Nc4ccc(F)cc4)cnn3c2C1	-1	0.13
C[C@@H](c1ccccc1)N(C)C(=O)Cc1ccc(NS(=O)(=O)c2cccs2)cc1	4	-0.79
CN1CC(NC(=O)C2(Cc3ccccc3)CC3CCC2C3)CCC1=O (stereo not given)	-6	0.57
CCc1onc(C)c1CNC(=O)[C@@H]1CCCC[C@@H]1N1CCCC1=O	6	-0.69
Cc1ccccc1C(=O)N(Cc1cccc(F)c1)c1ccc(CC(=O)NCC2CC2)cc1	5	-0.84
Cn1cncc1CN1C[C@H](Oc2ccccc2)[C@@H](O)C1	-4	0.5
c1cc2c(cc1CNC1CCCC1)CCO2	-4	0.64
N#Cc1cccc(CN(c2ccccn2)[C@H]2CC[C@H](N)CC2)c1	9	-1.4
Cc1ccc(C2c3[nH]c4ccccc4c3C[C@H]3C(=O)N(C4CCCC4)CC(=O)N23)cc1 (stereo not given in full)	7	-0.87
O=C1NCCCC[C@@H]1NC(=O)N1CCOc2cccc(F)c2C1	-5	1.01
CN(Cc1ccc2ccccc2n1)C(=O)NC1(C(=O)O)CCCC1	-10	1.04
Cc1cc(C(=O)N2CC(n3ccnn3)C2)no1	-10	1.42
Cc1ccc([C@H](CNc2oc(-c3cccnc3)nc2C#N)N2CCCCCC2)cc1	2	-0.33

Compound	% Inhibition [%]	Z score
CCC(C)(C)NC(=O)CN1CCC[C@H]1c1nc(-c2ccccc2)n[nH]1	31	-3.46
COC1(c2ccccc2)CN(c2ncnc3ccccc23)C1	-10	1.31
Nc1nc2c(c(N3CC=CC3)n1)CCN(C(=O)Cn1cnnn1)CC2	-13	2.55
COc1ccc(S(=O)(=O)C(F)(F)F)cc1NC(=O)CCCNC(=O)C(C)(C)C	0	-0.04
COc1ccccc1CN(c1cc(N2CCC[C@H](CO)C2)ncn1)C1CC1	-8	0.76
Fc1cccnc1CNc1ncccn1	-9	0.9
Fc1ccccc1CNc1nc(-c2nnc(-c3ccccc3)o2)nc2ccccc12	-8	1.47
CCCc1cc(N2CCN(Cc3cncnc3)CC2)nc(C)n1	-20	2.18
O=C(OCc1ccccc1)C1C2CCC(C2)N1C(=O)NC1CCCCC1 (stereo not given)	-2	0.36
O=C1CN(CC(=O)N[C@H](c2ccccc2)C2CCCCC2)CCN1	-3	0.55
COC(=O)c1cc(NC(=O)[C@H]2CCOC2)cc(C(=O)OC)c1	-7	0.69
CCN(Cc1nnnn1C(C)(C)C)c1cnn(C)c1	4	-0.38
COc1ccc(C)cc1NC(=O)Cn1c(=O)n(Cc2ccc3c(c2)OCO3)c(=O)c2sccc21	11	-1.59
Cc1cc(Cn2c(C)nc3c2CCCC3)no1	1	-0.22
Cc1ccc(-c2noc(C[C@H]3CNCCS3(=O)=O)n2)cc1Cl	7	-0.86
OC[C@H]1CCCN1Cc1cnc2c(-c3ccccc3)cnn2c1	1	-0.15
Cc1nc2c(c(=O)n1C)CN(C(=O)CCc1ccc3c(c1)OCO3)C2	-6	0.9
CCCOc1c(Cl)cc(C(=O)N(Cc2cccc3ccccc23)[C@H]2CCS(=O)(=O)C2)cc1Cl	-12	1.59
COc1ccccc1-c1nnc2c3ccc(Cl)cc3nc(N3CCN(C(=O)c4ccc(C)cc4)CC3)n12	-13	1.38
c1ccc2c(C[C@H]3COCCN3Cc3nncs3)c[nH]c2c1	-14	1.42
Cc1c(C(=O)NCc2nn(C)c3c2CN(C)CC3)cc(-c2ccc(F)cc2)n1C	-1	0.17
Cc1cc(Br)c(OCc2ccc(-c3nnc4n3CCCCC4)cc2)c(Br)c1	-6	0.81

Compound	% Inhibition [%]	Z score
CC(C)CN(CCN(C)C)C(=O)Nc1cnn(C)c1	-11	1.62
CC(C)c1nnc2n1CCN(C(=O)Nc1cccc(F)c1)[C@H]2C	-9	1.09
CCN(Cc1cnn(-c2ccc(C)c(C)c2)c1)C[C@H]1CCCO1	-9	1.81
O=C(c1cccs1)N(Cc1ccccn1)c1nc2ccccc2s1	4	-0.46
OCc1ccc(Cl)c(NCCOCC(F)(F)F)c1	5	-0.78
CN(C)C(=O)CC(=O)N1CCC=C(F)C1	-8	1.08
CC(C)(C)OC(=O)N1CCC[C@@H]1Cn1cc(C(=O)NC2CC2)nn1	-15	1.6
CC1CCN(Cc2nnnn2CCCC(=O)N[C@H](c2ccccn2)C(F)(F)F)CC1	-9	1.23
Cc1ccccc1CN1C(=O)c2cc(-c3ccco3)nn2C[C@@]1(C)C(=O)NCCC(C)C	1	-0.14
CCCCC(C)C(=O)N1CCOCCC1C (stereo not given)	13	-1.29
CC(C)CCc1cc(NC(=O)N[C@H]2CCN(c3ncccc3Cl)C2)n(C)n1	4	-0.66
Cc1ccc(-n2nc(C)c([C@@H]3CCC(=O)N3)c2C)c(C)c1	0	-0.04
Cc1ccc(-c2nc(C(=O)N3C(C)CN(C(=O)OC(C)(C)C)CC3C)cs2)o1 (stereo not given)	-9	0.79
Cc1nn(C)c(C)c1CC(=O)Nc1nc2ccccc2[nH]1	-2	0.39
CCc1nocc1CNc1cc(C(F)(F)F)n(C)n1	5	-0.84
Cc1cc(C(=O)N2CCC[C@H](Oc3cnccn3)C2)c(C)o1	-21	3.51
O=C(CC1CCCO1)NCC1NCCc2ccccc21 (stereo not given)	4	-0.55
Cc1nnc(CN2CCN(C3CCCC3)[C@@H](C)C2)o1	-9	1.04
CCn1cc(C)c(C(=O)O)c1CC(=O)NCCOC	-10	1.32
CCn1ccnc1CN1CC[C@]2(CCCO2)CCC1=O	-5	0.74
Cn1cc(NC(=O)NC(C)(C)CC2Cc3ccccc3C2)cn1	-4	0.71
Cc1nc2ccccc2n1CCNC1CC(CF)(CF)C1	-1	0.21

Compound	% Inhibition [%]	Z score
Cc1ccc(-c2n[nH]cc2CN(C)Cc2cc(-c3ccccc3)on2)cc1C	-20	2.72
CC(C)COCCC(=O)N1CCC[C@H](n2cccn2)C1	-4	0.64
CNc1ncccc1CN(C)C[C@H]1CCCN1C	-14	1.88
O=S(=O)(NC[C@H](O)C(F)(F)F)c1ccc(Cl)s1	-10	1.2
CCN1CCN(C(=O)CCNc2c(-c3cccc(C)c3)nc3cnccn23)CC1	-21	2.97
Cc1ccc(Oc2nc(N3CCC(C)CC3)nc3c2CN(C(=O)c2cnc4ccccc4n2)CC3)cc1	1	-0.24
O=C(CCc1ccccc1)N1C[C@@H]2OC(=O)N(CCCN3CCOCC3)[C@@H]2C1	-11	1.36
O=C(NC(c1ccc(F)cc1)c1ccccn1)C1CC2C=CC1C2 (stereo not given)	5	-0.67
COC(=O)CC1(NC(=O)c2cc(C)sn2)CCC1	10	-1.23
NC(=O)[C@H]1CCCN(CCNC(=O)Nc2cccc(-c3cscn3)c2)C1	-5	1.14
CNC(=O)[C@@H](C#N)C(=O)c1cccc(S(=O)(=O)NC2CCCC2)c1	-12	1.38
O=C(NCc1ccc(C(F)F)cc1)NCC1CCC(O)C1 (stereo not given)	0	-0.03
COC(=O)c1ccc(C(=O)Nc2ccncc2NC(=O)c2ccc(C(=O)OC)cc2)cc1	-2	0.35
Cc1ccc(CN(C)C(=O)Cn2cnc3c2c(=O)n(C)c(=O)n3C)c(C)c1	-10	1.34
N#CC1(C(=O)Nc2ccc3c(c2)CCC3)CCCC1	-4	0.7
CCN(C(=O)CCN(C)Cc1ncc[nH]1)c1ccccc1	19	-2.4
CCC(CC)(NC(=O)C1CN(C(=O)c2nccc3ccsc23)C1)C(N)=O	-12	1.8
Cc1cnn(Cc2ccccc2Cl)c1NC(=O)N[C@H]1CCCNC1=O	-12	1.97
CC1CN(C(=O)CC2CCCCC2(C)C)CCS1(=O)=O (stereo not given)	-11	1.25
